Assay results published in PMC6102074 (European journal of medicinal chemistry, 2018).

Target: T1, human RXFP1 (Homo sapiens, UniProt Q9HBX9)
T1 sequence (Q9HBX9 1-757): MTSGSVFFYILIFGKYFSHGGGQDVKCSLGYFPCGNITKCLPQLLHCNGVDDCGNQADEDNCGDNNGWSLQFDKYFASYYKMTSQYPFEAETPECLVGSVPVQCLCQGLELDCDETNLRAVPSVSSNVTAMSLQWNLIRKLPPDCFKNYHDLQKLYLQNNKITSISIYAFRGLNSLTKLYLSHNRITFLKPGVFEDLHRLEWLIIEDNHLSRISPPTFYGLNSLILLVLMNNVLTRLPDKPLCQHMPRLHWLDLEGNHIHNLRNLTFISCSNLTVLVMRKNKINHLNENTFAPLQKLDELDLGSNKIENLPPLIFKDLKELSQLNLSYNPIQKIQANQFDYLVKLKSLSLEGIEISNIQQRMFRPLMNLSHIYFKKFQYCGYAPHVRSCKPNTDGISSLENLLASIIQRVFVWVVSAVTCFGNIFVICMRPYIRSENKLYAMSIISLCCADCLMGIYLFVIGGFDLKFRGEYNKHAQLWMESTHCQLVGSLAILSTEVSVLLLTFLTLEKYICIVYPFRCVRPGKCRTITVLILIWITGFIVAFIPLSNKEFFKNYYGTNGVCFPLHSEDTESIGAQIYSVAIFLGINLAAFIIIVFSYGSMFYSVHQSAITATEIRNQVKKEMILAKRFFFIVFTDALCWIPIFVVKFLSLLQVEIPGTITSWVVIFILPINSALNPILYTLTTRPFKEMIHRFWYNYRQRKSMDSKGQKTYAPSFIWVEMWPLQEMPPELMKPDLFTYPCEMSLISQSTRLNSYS

Row | Structure (SMILES) | reduction in activity from parent compound 3 (relative to compound 3) [fold] | reduction in activity from compound 40 (relative to compound 40) [fold]
1 | O=C(Nc1cccc(C(F)(F)F)c1)c1ccccc1NC(=O)C1CC1 [Compound 27, 2-(Cyclopropanecarboxamido)-N-(3-(trifluoromethyl)phenyl)benzamide] | > 4 | –
2 | CCOc1ccccc1C(=O)Nc1ccncc1C(=O)Nc1cccc(S(=O)(=O)C(F)(F)F)c1 [Compound 51, 4-(2-Ethoxybenzamido)-N-(3-((trifluoromethyl)sulfonyl)phenyl)nicotinamide] | – | ~3
